Measurements published in PubChem BioAssay AID588453 (National Center for Advancing Translational Sciences (NCATS), 2011).
Where “and” joins values, the source holds several entries; their conditions need not be identical. Identical values can stand only once. The campaign covered roughly 390,000 compounds. About 4,000 (1%) were called active. The inconclusive results got no clear call from the source; some entries with a clear call stand among them for comparison. Calls follow the shape of the dose curve; as a rule, active = well fitted inhibition curve with a large enough effect; inconclusive = small, poorly fitted or top-dose-only effect; inactive = no such curve, though single readings can be large or run the other way. Where the call is inconclusive, the potency comes from a doubtful curve fit.
% is scaled to controls: 0 for no effect and ±100 for the full control effect; potency is read from the fitted curve at half-maximal effect; tags tell the direction and shape of the fitted curve.
Also: nearly all actives have a fitted effect of over 65% in size.

What follows are compounds tested against Thioredoxin reductase 1, cytoplasmic (Rattus norvegicus) (UniProt O89049) (assay: qHTS Assay for Inhibitors of Mammalian Selenoprotein Thioredoxin Reductase 1 (TrxR1): qHTS). Settings: recombinant rTrxR1, NADPH fluorescence consumption, selenite substrate; series mostly up to 114 µM; activity change, negative = inhibition: at the top concentration.
UniProt O89049, sequence (O89049 whole entry, looked up): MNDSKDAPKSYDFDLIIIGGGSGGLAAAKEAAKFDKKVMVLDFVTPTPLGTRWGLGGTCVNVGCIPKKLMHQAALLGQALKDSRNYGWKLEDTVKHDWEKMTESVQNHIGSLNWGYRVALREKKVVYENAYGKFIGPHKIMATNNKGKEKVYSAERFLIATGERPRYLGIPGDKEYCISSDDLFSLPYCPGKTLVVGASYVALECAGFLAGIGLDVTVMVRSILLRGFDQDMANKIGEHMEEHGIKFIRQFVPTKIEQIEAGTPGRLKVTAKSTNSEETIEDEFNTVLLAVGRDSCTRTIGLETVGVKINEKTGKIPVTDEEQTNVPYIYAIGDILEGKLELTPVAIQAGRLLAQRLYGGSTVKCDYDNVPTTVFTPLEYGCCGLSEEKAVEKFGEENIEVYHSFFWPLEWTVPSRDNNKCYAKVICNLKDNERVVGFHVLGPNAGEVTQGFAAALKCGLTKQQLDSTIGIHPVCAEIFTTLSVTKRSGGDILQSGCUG
How it was run: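 Rat TrxR1 (90 nM in the dispensed reagent) was pre-reduced with 400 uM NADPH for 5 min at room temperature, then incubated with compound for 15 min. After 400 uM selenite was added, NADPH fluorescence (Ex 340/Em 450 nm) was followed for 8 min.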
With Fc1ccc(NC(=S)Nc2cc(Cl)ccc2Cl)cc1 the Potency was inconclusive: 79.4 µM [inhibitor, single point]. For O=C(NC(=S)N1CCN(c2nc(-c3ccccc3)cs2)CC1)c1cccnc1, the Potency was inconclusive: 50.1 µM [inhibitor, partial curve, poor fit]. For Cc1ccc(C(=O)n2nc(-c3ccco3)nc2N)cc1, the Potency was inconclusive: 15.8 µM [inhibitor, partial curve, poor fit]. In the case of Cc1[nH][nH]c(=O)c1C(c1ccc(-c2ccc(F)cc2)o1)c1c(C)[nH][nH]c1=O, the Potency is reported as inconclusive: 44.7 µM [inhibitor, partial curve]. In the case of CC(=O)N1N=C(c2c(-c3ccccc3)c3cc(Br)ccc3[nH]c2=O)CC1c1ccco1 (stereo not given), the Potency is reported as active: 50.1 µM. COC(=O)CSc1nc(C)c(C(C)=O)cc1C#N was tested, and the “activity change, negative = inhibition” value was inactive: 20% [at 57.1 µM]. In the case of Cc1cc(C)n2nc(SCC(=O)c3c(N)n(CC(C)C)c(=O)n(C)c3=O)nc2n1, the Potency is reported as inconclusive: 89.1 µM [inhibitor, partial curve, poor fit]. Cc1ccc(-c2nnn(CC(=O)N(Cc3ccco3)C(C(=O)NC3CCCC3)c3cccs3)n2)o1 (stereo not given) was tested, and the Potency was inconclusive: 14.1 µM [inhibitor, single point]. In the case of COc1ccc2[nH]c(=O)c(COC(=O)c3ccco3)cc2c1, the Potency is reported as inconclusive: 31.6 µM [inhibitor, single point]. With NC(=O)/C=C/C(=O)Nc1ccc(Cl)cc1 the Potency was inconclusive: 31.6 µM [inhibitor, single point]. For COc1cccc(CN(C)S(=O)(=O)c2cccs2)c1, the “activity change, negative = inhibition” value was inactive: 9.25%. For COc1cc2c(cc1OC)-c1cc(NC3CCCCCC3)nc(=O)n1CC2, the “activity change, negative = inhibition” value was inactive: 14.4%. With C=C(c1ccccc1C)[n+]1ccccc1 the “activity change, negative = inhibition” value was inactive: 20.6% [at 57.1 µM]. In the case of C[C@@H]1Cc2c(O)c(O)cc(O)c2C(=O)O1, the Potency is reported as inconclusive: 89.1 µM [inhibitor, single point]. CCCS(=O)(=O)c1ncc(Cl)c(C(=O)N(Cc2ccccc2)Cc2ccco2)n1 was tested, and the Potency was active: 1.78 µM. CC(c1ccco1)N(C(=O)c1ccccc1NS(=O)(=O)c1cccc([N+](=O)[O-])c1)c1ccccn1 (stereo not given) was tested, and the Potency was inconclusive: 89.1 µM [inhibitor, single point]. With O=C(/C(=C/c1ccncc1)n1ccnc1)c1ccc(Cl)cc1Cl the Potency was inconclusive: 28.2 µM [inhibitor, partial curve, poor fit]. For CC1(C)CC(=O)C/C(=N\NC(=O)C2CC2c2ccccc2)C1 (stereo not given), the Potency was inconclusive: 89.1 µM [inhibitor, single point]. With CNC(=O)NC(=O)C(C)OC(=O)c1c2c(nc3ccccc13)/C(=C/c1cccs1)CC2 (stereo not given) the “activity change, negative = inhibition” value was inactive: 5.8%. With COc1cc(C(=O)O/N=C2\C=CC(=O)C=C2C)cc(OC)c1OC the Potency was inconclusive: 44.7 µM [inhibitor, partial curve]. For Nc1ncc([N+](=O)[O-])cc1Br, the Potency was inconclusive: 79.4 µM [inhibitor, single point]. For O=C(c1ccc2noc(-c3ccccc3)c2c1)N1CCN(c2ccccc2)CC1, the Potency was inconclusive: 89.1 µM [inhibitor, single point]. O=[N+]([O-])c1ccc(O/N=[N+](\[O-])N2CCCC2)c([N+](=O)[O-])c1 was tested, and the Potency was active: 17.8 µM. CN(C)c1nc(C#N)nc(N2CCOCC2)n1 was tested, and the Potency was inconclusive: 89.1 µM [inhibitor, single point]. In the case of Clc1ccc(-c2cc3ccccc3nc2N2CCOCC2)cc1, the “activity change, negative = inhibition” value is reported as inactive: 75.7% [at 57.1 µM]. In the case of COC(=O)c1ccc(C2Nc3c(C)cc(C)cc3C3C=CCC32)cc1 (stereo not given), the Potency is reported as active: 3.98 µM. C=CCNC(=O)CCc1nnc(C2(c3ccc(Cl)cc3)CCC2)o1 was tested, and the “activity change, negative = inhibition” value was inactive: 25.7%. In the case of Clc1cccc[n+]1CCCC[n+]1ccccc1Cl, the Potency is reported as inconclusive: 56.2 µM [inhibitor, partial curve]. With COc1cccc2sc(N(CCCN(C)C)C(=O)CCS(=O)(=O)c3ccccc3)nc12 the Potency was active: 1.58 µM. With COc1ccc(NC(=O)Cn2c(CCC(=O)O)ccc2-c2ccccc2)cc1Cl the “activity change, negative = inhibition” value was inactive: 7.68%. For CCN1CCc2c(sc(NC(=S)NC(=O)c3ccccc3)c2C#N)C1, the Potency was active: 17.8 µM. With Cc1ccc(/C=C/c2nc3ccccc3c(=O)[nH]2)cc1 the “activity change, negative = inhibition” value was inactive: 36.9%. In the case of Nc1c(NCCN2CCCCC2)c2ccccc2oc1=O, the Potency is reported as inconclusive: 35.5 µM [inhibitor, full curve, poor fit]. In the case of O=Cc1ccc(O)cc1, the “activity change, negative = inhibition” value is reported as inactive: -8.02%. With Cc1[nH]c2ccccc2c1C(=O)CN1CCN(C/C=C/c2ccccc2)CC1 the Potency was inconclusive: 31.6 µM [inhibitor, single point]. For C1CCCCCC(=NNc2nn[nH]n2)CCCCC1, the “activity change, negative = inhibition” value was inactive: 18.8% [at 57.1 µM]. With COc1ccc2oc(=O)cc(CN3CCN(C(=O)c4ccccc4F)CC3)c2c1 the Potency was inconclusive: 56.2 µM [inhibitor, partial curve, poor fit]. For O=C(Nc1ccc(Cl)cc1)Nc1cc(S(=O)(=O)N2CCOCC2)ccc1N1CCCC1, the “activity change, negative = inhibition” value was inactive: 21%. With CCCCn1c(SCC(=O)Nc2nnc(C(C)C)s2)nc2c1c(=O)n(C)c(=O)n2C the “activity change, negative = inhibition” value was inactive: 14%. For C#CCOCCOCCOCCNc1nc(N2CCN(C(=O)CCCCCCCCCCNC(=O)[C@H](CCCCN)n3cc(C[C@@H](C)CC)nn3)CC2)nc(N2CCN(C(=O)CCCCCCCCCCNC(=O)[C@H](CCCCN)n3cc(C[C@@H](C)CC)nn3)CC2)n1, the Potency was inconclusive: 17.8 µM [inhibitor, partial curve]. In the case of COc1cccc(NC(=O)c2ccc(-c3ccccc3[N+](=O)[O-])o2)c1, the Potency is reported as active: 15.8 µM. With Oc1cccc(C(Nc2ccccn2)c2ccc3cccnc3c2O)c1Cl (stereo not given) the Potency was inconclusive: 3.98 µM [inhibitor, full curve]. In the case of CCn1nc(C)cc1C(=O)Sc1cccc(Br)c1, the Potency is reported as active: 7.94 µM. In the case of COc1cccc(-c2ccc(NC(=O)C3CCCN(Cc4ccco4)C3)cc2)c1 (stereo not given), the Potency is reported as inconclusive: 44.7 µM [inhibitor, partial curve]. With N[C@@H](Cc1ccc(O)c(I)c1)C(=O)O the Potency was inconclusive: 1.34 µM [inhibitor, full curve] and inconclusive: 17.8 µM [inhibitor, single point]. CCc1ccccc1N1C(=O)C2C3CC(=O)C(c4ccccc43)C2C1=O (stereo not given) was tested, and the “activity change, negative = inhibition” value was inactive: 9.08%. O=C(Cc1coc2cc3c(cc12)CCC3)NC1CCCCCCC1 was tested, and the Potency was inconclusive: 89.1 µM [inhibitor, single point]. In the case of O=C(c1ccco1)N1CCN(C(=O)c2ccc(Cn3cc(Br)cn3)o2)CC1, the Potency is reported as inconclusive: 70.8 µM [inhibitor, single point]. In the case of O=C(Cn1nc(-c2ccccc2)ccc1=O)Nc1ccc(NC(=O)c2ccccn2)cc1, the “activity change, negative = inhibition” value is reported as inactive: 4.2% [at 57.1 µM]. With COC(=O)c1c(N2C(=O)CC(Sc3ccccc3C(=O)O)C2=O)sc(C)c1C (stereo not given) the Potency was inconclusive: 35.5 µM [inhibitor, single point]. Cc1ccc(C(=O)N/N=C\c2cccn2C)cn1 was tested, and the “activity change, negative = inhibition” value was inactive: -11.3%. In the case of O=C(CCl)Nc1cccn2ncnc12, the Potency is reported as inconclusive: 56.2 µM [inhibitor, partial curve, poor fit]. CC1(C)CC(=O)C2=C(C1)N(c1cccnc1)C(N)=C(C#N)C2c1cccs1 (stereo not given) was tested, and the Potency was inconclusive: 50.1 µM [inhibitor, partial curve]. CC(=O)Nc1ccc(Sc2ccc([N+](=O)[O-])o2)cc1 was tested, and the Potency was active: 4.47 µM. For COc1ccc(C(=O)/C=C/c2ccc(N(C)C)cc2)c(OC)c1, the “activity change, negative = inhibition” value was inactive: -8.58% [at 57.1 µM]. In the case of Cc1ccc(Nc2nc(N)nc(CSc3nncn3C)n2)cc1, the Potency is reported as inconclusive: 39.8 µM [inhibitor, single point]. In the case of O=C(CN1CCSCC1)N/N=C/c1ccccc1F, the “activity change, negative = inhibition” value is reported as inactive: 15%. With Cc1ccc(N/N=C/c2c(O)cc(C)oc2=O)cc1 the “activity change, negative = inhibition” value was inactive: 4.98% [at 57.1 µM]. With c1ccc(-c2nc(N3CCCCCC3)c3ccccc3n2)nc1 the “activity change, negative = inhibition” value was inactive: 8.05% [at 57.1 µM]. In the case of COc1ccc(S(=O)(=O)N2CCN(C(=O)c3ccc([N+](=O)[O-])o3)CC2)cc1, the Potency is reported as inconclusive: 17.8 µM [inhibitor, partial curve, poor fit]. For O=c1oc2ccc(Br)cc2cc1S(=O)(=O)c1ccc(F)cc1, the Potency was inconclusive: 28.2 µM [inhibitor, full curve]. In the case of CC1CCCCN1Cc1c(O)ccc2c(=O)c(-c3cccc(Cl)c3)c(C(F)(F)F)oc12 (stereo not given), the “activity change, negative = inhibition” value is reported as inactive: -4.93%. With CN1C(=O)/C(=N\OC(=O)c2ccccc2Cl)c2ccccc21 the Potency was active: 10 µM. In the case of CCCCCOc1ccc(C(=O)OCC(=O)Nc2cc(C)on2)cc1, the “activity change, negative = inhibition” value is reported as inactive: -7.99%. O=C(CC1Sc2ncnn2C1=O)Nc1ccc(Br)cc1 (stereo not given) was tested, and the Potency was active: 1.41 µM. CC1=NN(c2ccc(C(=O)O)cc2)C(=O)/C1=C\c1ccc(OC(=O)c2cccs2)cc1 was tested, and the Potency was inconclusive: 17.8 µM [inhibitor, partial curve]. For Cc1ccc(-c2nc3ccccn3c2Nc2ccccc2C)o1, the Potency was inconclusive: 56.2 µM [inhibitor, partial curve]. CN1c2ccccc2C(O)=C(C(=S)Nc2ccc(F)c(Cl)c2)S1(=O)=O was tested, and the Potency was inconclusive: 50.1 µM [inhibitor, partial curve]. C/C(=N\Nc1nccnc1Cl)c1ccc(O)cc1 was tested, and the “activity change, negative = inhibition” value was inactive: 3.09%. In the case of O=C(Nc1cc(F)ccc1F)C1CCN(c2nc3ccccc3n3cccc23)CC1, the “activity change, negative = inhibition” value is reported as inactive: 4.6%. For Cc1ccc(S(=O)(=O)CNC(=S)c2cccc(C)c2)cc1, the Potency was inconclusive: 31.6 µM [inhibitor, full curve, poor fit]. With C(=C\c1nc2ccccc2s1)/c1ccc2c(c1)OCO2 the “activity change, negative = inhibition” value was inactive: -9.12%. For CN(C(=O)/C=C/c1ccco1)c1ccccc1C(=O)O, the Potency was active: 28.2 µM. With O=C(NCc1cccs1)c1ccc2c(c1)N(Cc1ccccc1Cl)C(=O)c1ccccc1S2 the “activity change, negative = inhibition” value was inactive: 18.5% [at 57.1 µM]. In the case of CCOc1cc(NC(=S)NCCCN2CCOCC2)c(OCC)cc1NC(=O)CC(C)C, the Potency is reported as active: 22.4 µM.
